# Laboratory results published in patent CN114605536A.
# Biological target: 天然TSLP
# Experiment: cell-based or functional assay
binder,measurement,value
"QX008N (HZD8G2-57) (antibody, part only; not given: Light chain, part only) heavy: EVQLVESGGGLVQPGGSLRLSCAASGFSLSSYYMSWVRQAPGKGLEWVGFISYGGSAYHATWAQGRFTISKDNSKNTLYLQMNSLRAEDTAVYYCAREFRSMTYGAEWGIWGQGTLVTVSS[human IgG1 constant region not spelt out]",抑制天然TSLP诱导的SW756-STAT5-Luciferase报告基因细胞STAT5磷酸化活性的IC50,0.462 ng/mL
